Reference: paper PMC4300402
No constants are given. Whether binding was seen depends on the method and setting. For some of these results: In cells and extracts the contact can be indirect. Some binding calls cover weakened binding; strength is not graded here. Values belong to the substance of their own block, whether it stands above or below them.

Chains of the proteins cited; added tags and fusions are not shown. Lines headed by an entry give the natural chain unless they say otherwise; changes in a name come on top. A line that says so, or that is headed by a name, gives the form on record, which may keep a tag or linker. Residues count along the entry.
UniProt P19491, residues 22-883: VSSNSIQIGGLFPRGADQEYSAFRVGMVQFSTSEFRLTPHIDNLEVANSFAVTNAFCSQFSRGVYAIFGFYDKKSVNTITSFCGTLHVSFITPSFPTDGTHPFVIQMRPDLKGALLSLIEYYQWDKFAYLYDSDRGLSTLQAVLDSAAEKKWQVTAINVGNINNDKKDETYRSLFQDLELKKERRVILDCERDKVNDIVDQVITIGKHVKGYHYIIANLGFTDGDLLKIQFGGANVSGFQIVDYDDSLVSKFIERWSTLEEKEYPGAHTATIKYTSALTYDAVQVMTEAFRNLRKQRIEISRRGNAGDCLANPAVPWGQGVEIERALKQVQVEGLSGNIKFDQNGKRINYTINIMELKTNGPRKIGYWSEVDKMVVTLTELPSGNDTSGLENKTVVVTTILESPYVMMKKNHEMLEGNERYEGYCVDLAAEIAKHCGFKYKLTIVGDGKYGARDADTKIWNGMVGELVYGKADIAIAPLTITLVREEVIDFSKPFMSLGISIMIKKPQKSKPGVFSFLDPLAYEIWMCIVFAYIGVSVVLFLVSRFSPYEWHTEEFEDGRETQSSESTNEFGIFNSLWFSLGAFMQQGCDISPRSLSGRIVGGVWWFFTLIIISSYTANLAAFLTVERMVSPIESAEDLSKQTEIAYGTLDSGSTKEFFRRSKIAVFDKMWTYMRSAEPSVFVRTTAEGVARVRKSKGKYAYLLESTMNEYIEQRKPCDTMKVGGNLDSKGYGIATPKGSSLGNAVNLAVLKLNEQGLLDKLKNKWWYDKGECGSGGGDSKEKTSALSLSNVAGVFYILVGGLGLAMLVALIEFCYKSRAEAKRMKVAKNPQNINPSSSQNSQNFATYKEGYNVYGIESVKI
UniProt P60953: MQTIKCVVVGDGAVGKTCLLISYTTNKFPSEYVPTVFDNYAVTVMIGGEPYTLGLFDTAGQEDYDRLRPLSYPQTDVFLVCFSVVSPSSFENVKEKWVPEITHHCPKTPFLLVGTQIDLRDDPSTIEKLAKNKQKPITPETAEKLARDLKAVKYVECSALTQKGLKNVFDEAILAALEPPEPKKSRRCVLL
myc-tagged Cdc42(V12) (P60953, form named): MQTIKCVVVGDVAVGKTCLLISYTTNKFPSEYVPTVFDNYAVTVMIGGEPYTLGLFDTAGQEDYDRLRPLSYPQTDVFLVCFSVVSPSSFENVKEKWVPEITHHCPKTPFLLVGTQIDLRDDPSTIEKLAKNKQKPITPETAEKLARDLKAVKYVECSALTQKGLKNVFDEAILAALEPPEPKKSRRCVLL
myc-tagged Cdc42(N17) (P60953, form named): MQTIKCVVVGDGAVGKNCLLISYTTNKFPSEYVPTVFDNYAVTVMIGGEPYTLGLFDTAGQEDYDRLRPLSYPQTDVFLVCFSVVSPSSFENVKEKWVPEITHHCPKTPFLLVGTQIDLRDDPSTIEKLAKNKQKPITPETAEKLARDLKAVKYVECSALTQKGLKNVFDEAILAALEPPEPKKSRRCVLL
UniProt Q8CFN2: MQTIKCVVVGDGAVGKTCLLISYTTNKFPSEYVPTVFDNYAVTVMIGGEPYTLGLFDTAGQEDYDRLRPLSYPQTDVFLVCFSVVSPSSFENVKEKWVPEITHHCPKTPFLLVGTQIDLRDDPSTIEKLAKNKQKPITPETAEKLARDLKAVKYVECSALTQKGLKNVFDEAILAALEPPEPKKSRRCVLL

What was measured:
GST–PICK1 (wild-type) [1] = target: GST–PICK1 (wild-type) (UniProt Q9EP80); assay: pull-down; GST fusion proteins (GST–PICK1, GST–PAK–CRIB) incubated with lysates of COS7 cells expressing epitope-tagged GTPases; bound proteins detected by western blotting with anti-myc; only the target purified
[2] = target: PICK1 (endogenous, cortical neurons) (rat (endogenous in cortical neurons)) (UniProt Q9EP80); assay: co-IP; lysates of cultured cortical neurons (0.5% TX-100 diluted to 0.25%, 150 mM NaCl, 20 mM Tris pH 7.5) immunoprecipitated with anti-PICK1 or control IgG; western blotting
[3] = target: GluA2 (endogenous, cortical neurons) (rat (endogenous in cortical neurons)) (UniProt P19491); assay: co-IP; lysates of dissociated cortical neurons immunoprecipitated with anti-GluA2 or non-immune mouse IgG; western blotting with anti-GluA2, anti-PICK1 and anti-Cdc42
GST–PICK1 (1-379) = GST–PICK1 (1-379) (UniProt Q9EP80); assay: pull-down; GST–PICK1 wild type or truncation mutants incubated with purified his6-tagged flagCdc42 or mycRac1; western blotting with anti-flag or anti-myc; both purified
GST–PICK1 (105-416) = GST–PICK1 (105-416) (UniProt Q9EP80); assay: as above
GST–PICK1 (wild-type) [4] = target: GST–PICK1 (wild-type) (UniProt Q9EP80); assay: as above

Substance: myc-tagged Cdc42(V12) (from UniProt P60953 1-191)
binding (GST–PICK1 (wild-type) [1]): binds

Substance: PICK1 (endogenous, cortical neurons) (from UniProt Q9EP80 1-416)
binding [3]: binds

Substance: myc-tagged Cdc42(N17) (from UniProt P60953 1-191)
binding (GST–PICK1 (wild-type) [1]): binds

Second part, the substance after the results:

binding [2]: binds
Substance: Cdc42 (endogenous, cortical neurons) (from UniProt Q8CFN2 1-191)

binding (GST–PICK1 (1-379)): binds
binding (GST–PICK1 (105-416)): no binding
binding (GST–PICK1 (wild-type) [4]): binds
Substance: his6-tagged flagCdc42 (from UniProt P60953 1-191)
